# Measured values taken from article PMC9663165.
# Protein sequences, listed by entry. Tags and fused reporters are not part of them. Lines headed by an entry give the natural chain unless they say otherwise; changes in a name come on top. Chains listed by the source or under a name are the forms on record and can include a tag or linker. Residues count along the entry.
# full-length human p75 neurotrophin receptor fused at the cytoplasmic C-terminus to GFP (P08138, residues 29-427): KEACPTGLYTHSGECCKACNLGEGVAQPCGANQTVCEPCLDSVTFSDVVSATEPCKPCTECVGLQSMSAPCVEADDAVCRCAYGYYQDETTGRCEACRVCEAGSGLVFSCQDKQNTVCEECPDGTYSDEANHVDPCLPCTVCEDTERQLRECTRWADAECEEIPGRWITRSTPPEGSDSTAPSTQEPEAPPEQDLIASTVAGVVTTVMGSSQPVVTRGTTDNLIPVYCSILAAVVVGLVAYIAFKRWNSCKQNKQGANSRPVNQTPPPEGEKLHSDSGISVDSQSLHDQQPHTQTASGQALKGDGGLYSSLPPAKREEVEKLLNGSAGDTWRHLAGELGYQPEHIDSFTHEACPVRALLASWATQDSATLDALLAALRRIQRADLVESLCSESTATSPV
# p75^NTR F136K (P08138, form named): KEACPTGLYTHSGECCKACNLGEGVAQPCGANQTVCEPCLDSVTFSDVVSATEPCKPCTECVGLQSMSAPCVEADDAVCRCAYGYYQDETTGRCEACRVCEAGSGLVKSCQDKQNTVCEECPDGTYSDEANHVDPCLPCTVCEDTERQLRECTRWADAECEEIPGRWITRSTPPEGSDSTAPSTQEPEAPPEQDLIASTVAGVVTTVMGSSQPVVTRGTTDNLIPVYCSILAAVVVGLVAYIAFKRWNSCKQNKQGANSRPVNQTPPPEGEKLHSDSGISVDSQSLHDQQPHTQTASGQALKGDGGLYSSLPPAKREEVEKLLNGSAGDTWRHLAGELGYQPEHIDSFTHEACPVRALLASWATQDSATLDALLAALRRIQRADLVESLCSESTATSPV
# p75^NTR F136H (P08138, form named): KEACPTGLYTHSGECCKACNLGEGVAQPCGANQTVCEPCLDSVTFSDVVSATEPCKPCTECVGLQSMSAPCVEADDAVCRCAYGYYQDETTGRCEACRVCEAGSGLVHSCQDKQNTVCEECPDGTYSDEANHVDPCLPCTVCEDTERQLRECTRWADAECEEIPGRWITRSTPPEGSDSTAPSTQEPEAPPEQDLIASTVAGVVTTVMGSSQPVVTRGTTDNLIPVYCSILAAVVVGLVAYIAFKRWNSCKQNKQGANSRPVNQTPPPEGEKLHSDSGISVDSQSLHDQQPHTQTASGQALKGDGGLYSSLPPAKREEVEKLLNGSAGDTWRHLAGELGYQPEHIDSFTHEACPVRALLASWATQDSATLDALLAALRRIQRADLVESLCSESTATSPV
# UniProt P20333, residues 23-461: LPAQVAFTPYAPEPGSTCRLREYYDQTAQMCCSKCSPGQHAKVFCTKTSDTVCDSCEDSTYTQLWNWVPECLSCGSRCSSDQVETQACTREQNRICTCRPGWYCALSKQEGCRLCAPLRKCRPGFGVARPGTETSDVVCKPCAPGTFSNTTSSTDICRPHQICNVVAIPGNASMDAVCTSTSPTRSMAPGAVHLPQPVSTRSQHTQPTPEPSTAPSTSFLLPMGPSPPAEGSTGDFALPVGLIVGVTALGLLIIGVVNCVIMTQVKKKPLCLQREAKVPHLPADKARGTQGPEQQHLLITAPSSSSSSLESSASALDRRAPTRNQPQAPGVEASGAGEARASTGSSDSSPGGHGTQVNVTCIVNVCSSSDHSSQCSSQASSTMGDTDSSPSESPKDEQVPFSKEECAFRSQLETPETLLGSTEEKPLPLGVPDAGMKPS
# UniProt Q96PQ0, residues 51-1159: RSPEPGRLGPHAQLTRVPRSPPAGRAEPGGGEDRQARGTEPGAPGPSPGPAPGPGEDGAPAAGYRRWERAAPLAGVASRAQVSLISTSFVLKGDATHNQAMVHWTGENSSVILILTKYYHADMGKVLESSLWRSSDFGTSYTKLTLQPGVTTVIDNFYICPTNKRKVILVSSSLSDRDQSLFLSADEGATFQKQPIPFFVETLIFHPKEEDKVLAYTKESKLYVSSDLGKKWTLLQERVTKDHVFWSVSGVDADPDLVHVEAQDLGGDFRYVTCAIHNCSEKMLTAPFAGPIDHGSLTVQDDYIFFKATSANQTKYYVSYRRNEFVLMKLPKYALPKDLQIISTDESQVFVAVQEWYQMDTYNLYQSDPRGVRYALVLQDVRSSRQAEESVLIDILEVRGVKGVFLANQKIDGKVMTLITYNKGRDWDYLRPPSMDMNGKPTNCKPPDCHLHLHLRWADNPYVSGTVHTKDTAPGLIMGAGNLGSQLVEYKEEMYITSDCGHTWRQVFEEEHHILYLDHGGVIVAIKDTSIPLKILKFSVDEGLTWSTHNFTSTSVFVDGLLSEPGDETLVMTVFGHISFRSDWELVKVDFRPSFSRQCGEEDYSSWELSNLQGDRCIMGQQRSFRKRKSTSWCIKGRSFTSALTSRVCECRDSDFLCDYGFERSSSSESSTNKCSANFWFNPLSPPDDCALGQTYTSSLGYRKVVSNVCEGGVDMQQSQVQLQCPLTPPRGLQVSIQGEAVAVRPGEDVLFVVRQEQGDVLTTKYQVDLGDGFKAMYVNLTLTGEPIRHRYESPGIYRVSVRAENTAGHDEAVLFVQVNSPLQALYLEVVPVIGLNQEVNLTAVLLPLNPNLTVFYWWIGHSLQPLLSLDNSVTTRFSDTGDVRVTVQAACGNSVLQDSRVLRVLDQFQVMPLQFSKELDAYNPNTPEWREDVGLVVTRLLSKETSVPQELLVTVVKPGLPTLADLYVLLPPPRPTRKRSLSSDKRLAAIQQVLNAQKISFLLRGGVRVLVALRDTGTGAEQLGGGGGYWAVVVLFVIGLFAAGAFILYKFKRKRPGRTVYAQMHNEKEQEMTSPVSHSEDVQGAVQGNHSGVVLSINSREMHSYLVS
# UniProt P25445: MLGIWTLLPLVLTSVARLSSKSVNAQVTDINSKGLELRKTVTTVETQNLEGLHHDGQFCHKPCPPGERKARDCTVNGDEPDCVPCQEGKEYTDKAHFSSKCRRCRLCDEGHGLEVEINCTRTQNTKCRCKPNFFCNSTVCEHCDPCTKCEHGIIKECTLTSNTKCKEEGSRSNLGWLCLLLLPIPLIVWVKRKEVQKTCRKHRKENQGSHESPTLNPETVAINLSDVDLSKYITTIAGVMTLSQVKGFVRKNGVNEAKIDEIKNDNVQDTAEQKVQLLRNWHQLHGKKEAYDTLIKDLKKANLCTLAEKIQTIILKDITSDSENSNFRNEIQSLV
# UniProt Q92956: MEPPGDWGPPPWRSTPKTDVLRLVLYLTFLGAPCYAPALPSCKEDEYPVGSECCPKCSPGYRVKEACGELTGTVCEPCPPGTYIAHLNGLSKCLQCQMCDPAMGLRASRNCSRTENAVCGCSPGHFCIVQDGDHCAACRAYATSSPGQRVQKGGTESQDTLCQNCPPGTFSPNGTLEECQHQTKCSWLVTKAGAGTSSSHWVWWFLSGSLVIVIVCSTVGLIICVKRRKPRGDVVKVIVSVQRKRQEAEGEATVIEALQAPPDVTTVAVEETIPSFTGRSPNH
# UniProt Q9Z0W1, residues 32-427: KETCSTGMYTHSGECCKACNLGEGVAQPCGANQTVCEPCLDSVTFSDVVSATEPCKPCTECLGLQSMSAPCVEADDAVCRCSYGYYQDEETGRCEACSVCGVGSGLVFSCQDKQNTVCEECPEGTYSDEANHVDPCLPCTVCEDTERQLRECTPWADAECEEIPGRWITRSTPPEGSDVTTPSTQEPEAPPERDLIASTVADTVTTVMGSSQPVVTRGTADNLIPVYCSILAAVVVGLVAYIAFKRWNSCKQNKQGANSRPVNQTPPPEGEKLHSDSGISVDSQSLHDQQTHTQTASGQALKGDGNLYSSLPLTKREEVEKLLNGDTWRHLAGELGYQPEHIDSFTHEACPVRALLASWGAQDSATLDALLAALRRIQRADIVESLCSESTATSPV
# UniProt P07174, residues 30-425: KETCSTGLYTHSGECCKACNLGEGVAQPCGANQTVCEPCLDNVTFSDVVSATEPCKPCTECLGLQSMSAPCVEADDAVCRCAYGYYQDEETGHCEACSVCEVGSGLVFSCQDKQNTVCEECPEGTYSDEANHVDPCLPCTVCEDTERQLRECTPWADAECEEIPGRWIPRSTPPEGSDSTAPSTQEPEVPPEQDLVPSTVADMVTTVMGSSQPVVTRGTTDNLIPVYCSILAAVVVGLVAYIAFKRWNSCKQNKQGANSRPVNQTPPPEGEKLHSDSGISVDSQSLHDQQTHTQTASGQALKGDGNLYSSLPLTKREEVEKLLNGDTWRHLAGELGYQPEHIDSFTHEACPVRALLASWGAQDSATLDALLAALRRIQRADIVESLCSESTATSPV
# These are yes or no findings as the source states them, for the method shown. Some entries that bind do so weakly or less than the wild type.
# Tests used:
# p75^NTR F136K (human) = p75^NTR F136K (human) (UniProt P08138); assay: flow cytometry on cells; cell-cell conjugates, salt bridge suppressor screen: cells expressing p75NTR lysine or histidine mutants against cells expressing B7-1 D/E mutants or WT B7-1
# p75^NTR F136H (human) = p75^NTR F136H (human) (UniProt P08138); assay: as above
# [1] = target: full-length human p75 neurotrophin receptor fused at the cytoplasmic C-terminus to GFP (human) (UniProt P08138); assay: flow cytometry on cells; heterologous cell-based assay of hB7-1 binding to p75NTR with abatacept; details only in Supplemental Figure 9
# [2] = target: TNFR2, GFP-tagged library member (human) (UniProt P20333); assay: flow cytometry on cells; cell-cell conjugates: cells expressing the mCherry-tagged query mixed with cells individually expressing GFP-tagged members of the human Ig and TNFR superfamily library; double-positive events; PBS 0.2% BSA, pH 7.4
# sortilin = sortilin (UniProt Q99523); assay: as above
# SorCS2 = SorCS2 (UniProt Q96PQ0); assay: as above
# [3] = target: FAS, GFP-tagged library member (human) (UniProt P25445); assay: as above
# [4] = target: full-length human p75 neurotrophin receptor fused at the cytoplasmic C-terminus to GFP (human) (UniProt P08138); assay: as above
# [5] = target: HVEM, GFP-tagged library member (human) (UniProt Q92956); assay: as above
# SorCS3 = target: T1, SorCS3 (UniProt Q9UPU3); assay: as above
# T1 sequence: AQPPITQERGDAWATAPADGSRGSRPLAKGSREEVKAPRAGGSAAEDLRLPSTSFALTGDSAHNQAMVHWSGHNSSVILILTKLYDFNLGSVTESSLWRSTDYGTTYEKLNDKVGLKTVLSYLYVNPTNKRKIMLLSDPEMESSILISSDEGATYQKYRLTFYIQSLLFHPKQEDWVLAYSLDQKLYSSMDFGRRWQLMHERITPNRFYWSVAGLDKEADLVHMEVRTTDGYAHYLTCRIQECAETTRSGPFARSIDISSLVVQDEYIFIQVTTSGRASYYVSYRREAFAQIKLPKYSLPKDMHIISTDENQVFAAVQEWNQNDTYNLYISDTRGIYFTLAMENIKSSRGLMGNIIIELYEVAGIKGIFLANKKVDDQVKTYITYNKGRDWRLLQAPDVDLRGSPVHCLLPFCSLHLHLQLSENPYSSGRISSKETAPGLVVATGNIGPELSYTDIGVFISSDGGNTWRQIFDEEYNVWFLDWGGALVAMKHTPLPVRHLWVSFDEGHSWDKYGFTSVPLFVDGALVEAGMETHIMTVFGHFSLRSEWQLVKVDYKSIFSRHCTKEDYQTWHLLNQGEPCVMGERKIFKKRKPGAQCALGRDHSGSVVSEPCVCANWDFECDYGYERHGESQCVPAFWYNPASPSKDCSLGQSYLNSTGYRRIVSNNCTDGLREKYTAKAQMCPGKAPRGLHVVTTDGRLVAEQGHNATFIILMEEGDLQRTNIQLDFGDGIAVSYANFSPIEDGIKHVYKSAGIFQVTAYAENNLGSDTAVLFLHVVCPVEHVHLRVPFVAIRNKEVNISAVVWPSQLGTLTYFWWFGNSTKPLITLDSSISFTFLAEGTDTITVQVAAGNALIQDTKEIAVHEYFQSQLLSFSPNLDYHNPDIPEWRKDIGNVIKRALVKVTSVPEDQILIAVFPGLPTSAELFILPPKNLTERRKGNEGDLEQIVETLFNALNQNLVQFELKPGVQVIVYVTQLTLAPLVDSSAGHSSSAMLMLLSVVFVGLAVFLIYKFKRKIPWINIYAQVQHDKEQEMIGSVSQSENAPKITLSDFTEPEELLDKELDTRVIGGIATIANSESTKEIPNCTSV
# SorCS1 = target: T2, SorCS1 (UniProt Q8WY21); assay: as above
# T2 sequence: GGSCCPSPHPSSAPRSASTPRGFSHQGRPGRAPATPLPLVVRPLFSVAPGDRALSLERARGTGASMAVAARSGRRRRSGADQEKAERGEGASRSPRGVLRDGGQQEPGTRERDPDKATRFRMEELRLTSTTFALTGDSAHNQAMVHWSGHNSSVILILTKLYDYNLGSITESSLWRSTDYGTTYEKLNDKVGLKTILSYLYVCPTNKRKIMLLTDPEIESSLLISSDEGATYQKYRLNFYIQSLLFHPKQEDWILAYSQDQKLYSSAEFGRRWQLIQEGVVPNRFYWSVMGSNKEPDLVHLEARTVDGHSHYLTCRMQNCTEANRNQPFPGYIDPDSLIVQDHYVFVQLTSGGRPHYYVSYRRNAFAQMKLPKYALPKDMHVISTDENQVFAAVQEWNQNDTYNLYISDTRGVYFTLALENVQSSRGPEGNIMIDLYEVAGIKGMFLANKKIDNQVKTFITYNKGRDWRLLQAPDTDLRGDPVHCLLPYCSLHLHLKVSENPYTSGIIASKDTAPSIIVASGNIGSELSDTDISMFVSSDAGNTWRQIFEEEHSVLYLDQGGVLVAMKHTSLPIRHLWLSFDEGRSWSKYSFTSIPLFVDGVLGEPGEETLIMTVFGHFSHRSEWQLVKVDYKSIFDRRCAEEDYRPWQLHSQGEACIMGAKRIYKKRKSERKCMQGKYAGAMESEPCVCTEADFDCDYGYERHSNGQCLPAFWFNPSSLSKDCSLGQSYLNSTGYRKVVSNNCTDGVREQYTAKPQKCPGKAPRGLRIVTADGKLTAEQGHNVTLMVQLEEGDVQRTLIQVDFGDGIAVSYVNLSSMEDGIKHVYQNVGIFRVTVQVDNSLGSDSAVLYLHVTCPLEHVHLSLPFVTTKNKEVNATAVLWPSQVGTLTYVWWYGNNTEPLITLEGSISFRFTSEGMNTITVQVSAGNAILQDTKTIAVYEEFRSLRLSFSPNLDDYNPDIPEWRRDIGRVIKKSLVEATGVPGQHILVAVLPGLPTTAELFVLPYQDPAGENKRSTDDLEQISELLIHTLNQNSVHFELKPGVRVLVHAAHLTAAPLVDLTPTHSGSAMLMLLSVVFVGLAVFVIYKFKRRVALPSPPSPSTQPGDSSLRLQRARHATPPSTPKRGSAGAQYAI
# [6] = target: mouse p75^NTR-GFP (mouse) (UniProt Q9Z0W1); assay: flow cytometry on cells; cell-cell conjugates: cells expressing B7-1–mCherry of various mammalian species against cells expressing human, mouse or rat p75NTR-GFP
# rat p75^NTR-GFP (rat) = rat p75^NTR-GFP (rat) (UniProt P07174); assay: as above
# [7] = target: full-length human p75 neurotrophin receptor fused at the cytoplasmic C-terminus to GFP (human) (UniProt P08138); assay: as above
substance,measurement,setting,value
human B7-1–mCherry fusion protein (from UniProt P33681 35-288) (ligand),binding,p75^NTR F136K (human),binds
same,binding,p75^NTR F136H (human),binds
same,binding,[1],binds
same,binding,[2],no binding
same,binding,sortilin,no binding
same,binding,SorCS2,no binding
same,binding,[3],no binding
same,binding,[4],binds
same,binding,[5],no binding
same,binding,SorCS3,no binding
same,binding,SorCS1,no binding
same,binding,[6],binds
same,binding,rat p75^NTR-GFP (rat),binds
same,binding,[7],binds
